# According to the supplement of paper PMC10338343:
# ± gives the standard deviation. Whole data set: some 3,700 sequences, median “pre-steady-state target cleavage rate” near 0.02, cut for the highest 2% near 0.23. Only a part is listed here, and it is no random draw.
# System: MILI (PIWIL2) piRISC loaded with Kctd7 piRNA (26 nt)
# Assay: pre-steady-state target cleavage rate (min^-1); MIWI and MILI are mouse PIWI proteins and EfPiwi is from a freshwater sponge; tags in brackets are library labels; higher = faster piRNA-guided slicing of the target
# Conditions: guide: Kctd7 piRNA 5'p-UGUUAAUCUCUCAGAGAAGGUGACAG; auxiliary factor: 500 nM mouse GTSF1
# Outline: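 The pre-steady-state cleavage rate was derived from a burst-and-steady-state fit of Cleave-'n-Seq data. For these assays, 1 nM active affinity-purified piRISC loaded with a single synthetic guide was mixed with […] a transcribed, DNA-blocked target RNA library in HEPES–potassium acetate buffer at 33 °C, with or without 500 nM GTSF1 partner protein, for 0–8 or 0–960 min. Sequencing counts of uncleaved targets were normalised to depth and to weakly complementary targets, and k3 was capped at 0.0001 min^-1 after three trials were pooled.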
# 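Further: 1 nM active piRISC with 0.1 nM target library at 33 °C single turnover.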
row,Sequence,pre-steady-state target cleavage rate
1,UAGUGACAGUGCUUCUCUUAGAGAUUAACA,0.0209 ± 0.0046
2,UAGUCUGUCACCUUCUUUGAGAGAUUAACA,0.259 ± 0.019
3,UAGUGAGUCUCCUUCUCUGACAGAUUAACA,0.0611 ± 0.0087
4,UAGUGUGUCACCUUCUCUGAAAGAUUAACA,0.0569 ± 0.011
5,UAGUGAGUCACCUUCUCAGUGAGAUUAACA,0.0225 ± 0.0044
6,UAGUCUGUACACCUUCUCUGAGAGAUUAACA,0.193 ± 0.011
7,UAGUGACUCACGUUCUCUGACAGAUUAACA,0.00336 ± 0.0024
8,UAGUGACAGUGCUUCUCUCAGAGAUUAACA,0.0108 ± 0.0029
9,UAGUGACAGACCUUCACUCAGAGAUUAACA,0.0105 ± 0.005
10,UAGUGUGUCACCUUCUCUGGGAGAUUAACA,0.17 ± 0.016
11,UAGUGUGUCACCUUCUCUGAGAAUUAACA,0.0848 ± 0.036
12,UAGUGUGUCACCUUCACUGAGAGAUUAAGA,0.0546 ± 0.021
13,UAGUCAGUCACCUUCUCUGAGAGAUAAACA,0.107 ± 0.018
14,UAGUGACACACCUUCUCAGAGAGAUUUACA,0.0481 ± 0.016
15,UAGUGACACACCUUCUCUGAGAGAUUUACA,0.16 ± 0.025
16,UAGUGACAGUGGAACUCUGAGAGAAUAACA,< 0.0001
17,UAGUGACUGACCUUCUCUGAGAGAUUUACA,0.137 ± 0.029
18,UAGUGACAGUCCAUUCUCUGAGAGAUUAACA,0.0543 ± 0.0048
19,UAGUGACUCAACCUUCUCUGAGAGAUUAACA,0.0845 ± 0.0075
20,UAGUGACAGACCUUCUCUCAGACAUUAACA,0.0153 ± 0.0052
21,UAGUGACAGACCUUCUCUGUGAGAUUUACA,0.0208 ± 0.011
22,UAGUGAGUGACCUUCUCUGAGAGAAUAACA,0.0354 ± 0.015
23,UAGUGACACACCCUUCUCUGAGAGAUUAACA,0.0865 ± 0.012
24,UAGUGACAGUCCAUCUCUGAGAGAUUUACA,0.00707 ± 0.0035
25,UAGUGACUCACCUACUCAGAGAGAUUAACA,0.0461 ± 0.0094

row,Sequence,pre-steady-state target cleavage rate
1,UAGUGACUCACCUUCACUGAGAGAUUAUGA,0.0684 ± 0.018
2,UAGUGACACACCUUCACUGAGAGAUUUACA,0.19 ± 0.044
3,UAGUCGGUCACCUUCUCUGAGAGAUUAACA,0.196 ± 0.0068
4,UAGUGUGUCACCUUCUCUGGAGAUUAACA,0.018 ± 0.0067
5,UAGUGACAGAGGAUCUCUGAGAGAUUAACA,0.00378 ± 0.0013
6,UAGUGACACACCUUCUCUGAGAAGAUUAACA,0.0568 ± 0.0091
7,UAGUGACUCACCUUCACUCAGAGAUUAACA,0.0101 ± 0.0048
8,UAGUGUGUCACCUUCUCUGAGAGAUCAACA,0.142 ± 0.026
9,UAGUGAGACACCUUCUCUCAGAGAUUAACA,0.0299 ± 0.0053
10,UAGUGACAGAGCUUCUCUGAGAGUUUAACA,0.0156 ± 0.0064
11,UAGUGACAGUGGAACUCUGAGAGAUUACCA,< 0.0001
12,UAGUGACAGUCUUUCUCUGAGAGAUUAACA,0.0604 ± 0.0059
13,UAGUGAGUCACCUUCUCUGAGAGACUAACA,0.114 ± 0.02
14,UAGUCUGUGACCUUCUCUGAGAGAUUUACA,0.0895 ± 0.013
15,UAGUGACAGUCCUUCCUGAGAGAUUAACA,0.00498 ± 0.0043
16,UAGUGACAGUGCUUGUCUGACAGAUUAACA,0.00371 ± 0.0032
17,UAGUGACACUCCUUCACUGAGAGAUUAACA,0.103 ± 0.012
18,UAGUGAGUCACCUUCUCUGAGAGAGUAACA,0.239 ± 0.063
19,UAGUGAGUCACCUUCUCGGAGAGAUUAACA,0.16 ± 0.011
20,UAGUCUGUCACCUUCUCUGAGAGAAAUACA,0.032 ± 0.013
21,UAGUCUGUCACCUUCUCUGAGAGAAUUAACA,0.32 ± 0.051
22,UAGUGUGUCACCUUCUCUCAGAGAUUAUCA,0.0268 ± 0.011
23,UAGUGACUCACCUACUCUGAGACAUUAACA,0.033 ± 0.0067
24,UAGUGACACAGCUUGUCUGAGAGAUUAACA,0.084 ± 0.013
25,UAGUGACACACCUUCUGAGAGAGAUUAAGA,0.0191 ± 0.0097

row,Sequence,pre-steady-state target cleavage rate
1,UAGUGACUCUCCUUCACUGAGAGAUUAACA,0.0804 ± 0.011
2,UAGUCUGUCACGAUCUCUGAGAGAUUAACA,0.133 ± 0.0078
3,UAGUGUGUCACCUUCUCUGAGAGAUUAACC [g2:g25:cont:t1C],0.202 ± 0.014
4,UAGUGACAGACGUUCUCUGUGAGAUUAACA,0.0237 ± 0.0054
5,UAGUCAGUCACCUUCUCUGAGAGAAUAACA,0.218 ± 0.043
6,UAGUGUGUCACCUUCUCAGAGUGAUUAACA,0.00684 ± 0.0045
7,UAGUGACAGACCUUCCUGAGAGAUUAACA,0.00793 ± 0.0048
8,UAGUGACAGACCUUCUCUGAGAGAUUGACA,0.0808 ± 0.02
9,UAGUGACAGUGCUACUCUGAGAGAUUAUCA,0.00306 ± 0.0025
10,UAGUGUGACAGCUUCUCUGAGAGAUUAACA,0.0832 ± 0.0075
11,UAGUGACAGACCUUCUCUGAGAGAUUAUCA,0.076 ± 0.017
12,UAGUGACUCACCUUGUCUGAGAGAUUUACA,0.0672 ± 0.024
13,UAGUGACACACCUUCUCUGAGAGAUGAACA,0.0713 ± 0.024
14,UAGUGACUCACCUUGACUGAGAGAUUAACA,0.00701 ± 0.004
15,UAGUGUGUCACGUUCUCUGUGAGAUUAACA,0.0371 ± 0.0033
16,UAGUGUGUCACCUUCUCUGAGAUGAUUAACA,0.0992 ± 0.012
17,UAGUGUGUCACCUUCUCUGAGCGAUUAACA,0.0254 ± 0.011
18,UAGUGACUCACGUUCUCUGAGAGUUUAACA,0.032 ± 0.0065
19,UAGUGACAGUGGAAGACUGAGAGAUUGAACA,< 0.0001
20,UAGUGACUGUCCUUCUCUGAGAGAUUAAGA,0.0592 ± 0.021
21,UAGUCUGUCACGUUCUCUGAGAGAAUAACA,0.0645 ± 0.0087
22,UAGUGACAGACCUUCUCUGAGAGAUUAAA,0.041 ± 0.015
23,UAGUCUGUCAGCUUCUCAGAGAGAUUAACA,0.119 ± 0.0095
